# Data reported in article PMC9911399, “Two distinct binding modes provide the RNA-binding protein RbFox with extraordinary sequence specificity”.
# Substitutions are numbered along the chain they refer to; changes in the protein carry UniProt numbers. This is one part of the list.
# T1: RBFOX1 RRM (Homo sapiens, UniProt Q9NWB1 109-208)
# T1 sequence: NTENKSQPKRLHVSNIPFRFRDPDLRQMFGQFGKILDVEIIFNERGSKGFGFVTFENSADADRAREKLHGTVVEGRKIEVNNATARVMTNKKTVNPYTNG
# B1: GCAGUCA (DNA:RNA)
# RNA: GGGAGACCGGAAUUCAGAUUGUCCGCAGUCAUUAAAUCCCGUCGUAGCCACCA
# DNA 1: CAATCTGAATTCCGGTCTCCC
# DNA 2: TGGTGGCTACGACGGGATT
# B2: AGUGAGU (DNA:RNA)
# RNA: B1 RNA with G25A, C26G, A27U, U29A, C30G, A31U
# DNA 1: CAATCTGAATTCCGGTCTCCC
# DNA 2: TGGTGGCTACGACGGGATT
# B3: GUGGUUG (DNA:RNA)
# RNA: B1 RNA with C26U, A27G, C30U, A31G
# DNA 1: CAATCTGAATTCCGGTCTCCC
# DNA 2: TGGTGGCTACGACGGGATT
# B4: AUGCUCC (DNA:RNA)
# RNA: B1 RNA with G25A, C26U, A27G, G28C, A31C
# DNA 1: CAATCTGAATTCCGGTCTCCC
# DNA 2: TGGTGGCTACGACGGGATT
# B5: GUGGGUU (DNA:RNA)
# RNA: B1 RNA with C26U, A27G, U29G, C30U, A31U
# DNA 1: CAATCTGAATTCCGGTCTCCC
# DNA 2: TGGTGGCTACGACGGGATT
# B6: CCCGGCA (DNA:RNA)
# RNA: B1 RNA with G25C, A27C, U29G
# DNA 1: CAATCTGAATTCCGGTCTCCC
# DNA 2: TGGTGGCTACGACGGGATT
# B7: CGCUCCC (DNA:RNA)
# RNA: B1 RNA with G25C, C26G, A27C, G28U, U29C, A31C
# DNA 1: CAATCTGAATTCCGGTCTCCC
# DNA 2: TGGTGGCTACGACGGGATT
# B8: GCACCAU (DNA:RNA)
# RNA: B1 RNA with G28C, U29C, C30A, A31U
# DNA 1: CAATCTGAATTCCGGTCTCCC
# DNA 2: TGGTGGCTACGACGGGATT
# B9: GGGUAAA (DNA:RNA)
# RNA: B1 RNA with C26G, A27G, G28U, U29A, C30A
# DNA 1: CAATCTGAATTCCGGTCTCCC
# DNA 2: TGGTGGCTACGACGGGATT
# B10: UCAUGUC (DNA:RNA)
# RNA: B1 RNA with G25U, G28U, U29G, C30U, A31C
# DNA 1: CAATCTGAATTCCGGTCTCCC
# DNA 2: TGGTGGCTACGACGGGATT
# B11: CGCAACA (DNA:RNA)
# RNA: B1 RNA with G25C, C26G, A27C, G28A, U29A
# DNA 1: CAATCTGAATTCCGGTCTCCC
# DNA 2: TGGTGGCTACGACGGGATT
# B12: ACCUGGG (DNA:RNA)
# RNA: B1 RNA with G25A, A27C, G28U, U29G, C30G, A31G
# DNA 1: CAATCTGAATTCCGGTCTCCC
# DNA 2: TGGTGGCTACGACGGGATT
# B13: CGCCGGG (DNA:RNA)
# RNA: GGGAGACCGGAAUUCAGAUUGUCCCGCCGGGUUAAAUCCCGUCGUAGCCACCA
# DNA 1: CAATCTGAATTCCGGTCTCCC
# DNA 2: TGGTGGCTACGACGGGATT
# B14: GCCGGUA (DNA:RNA)
# RNA: B1 RNA with A27C, U29G, C30U
# DNA 1: CAATCTGAATTCCGGTCTCCC
# DNA 2: TGGTGGCTACGACGGGATT
# B15: GGCUAAG (DNA:RNA)
# RNA: B13 RNA with C25G, C28U, G29A, G30A
# DNA 1: CAATCTGAATTCCGGTCTCCC
# DNA 2: TGGTGGCTACGACGGGATT
# B16: GGGCUGG (DNA:RNA)
# RNA: B13 RNA with C25G, C27G, G29U
# DNA 1: CAATCTGAATTCCGGTCTCCC
# DNA 2: TGGTGGCTACGACGGGATT
# B17: GGGGAUC (DNA:RNA)
# RNA: B1 RNA with C26G, A27G, U29A, C30U, A31C
# DNA 1: CAATCTGAATTCCGGTCTCCC
# DNA 2: TGGTGGCTACGACGGGATT
# B18: GCGAUCU (DNA:RNA)
# RNA: B1 RNA with A27G, G28A, A31U
# DNA 1: CAATCTGAATTCCGGTCTCCC
# DNA 2: TGGTGGCTACGACGGGATT
# B19: GCGUUGC (DNA:RNA)
# RNA: B1 RNA with A27G, G28U, C30G, A31C
# DNA 1: CAATCTGAATTCCGGTCTCCC
# DNA 2: TGGTGGCTACGACGGGATT
# B20: GUUCCCU (DNA:RNA)
# RNA: B1 RNA with C26U, A27U, G28C, U29C, A31U
# DNA 1: CAATCTGAATTCCGGTCTCCC
# DNA 2: TGGTGGCTACGACGGGATT
# B21: CGUGUAA (DNA:RNA)
# RNA: B1 RNA with G25C, C26G, A27U, C30A
# DNA 1: CAATCTGAATTCCGGTCTCCC
# DNA 2: TGGTGGCTACGACGGGATT
# B22: UGUGUUC (DNA:RNA)
# RNA: B1 RNA with G25U, C26G, A27U, C30U, A31C
# DNA 1: CAATCTGAATTCCGGTCTCCC
# DNA 2: TGGTGGCTACGACGGGATT
# B23: UAACGGG (DNA:RNA)
# RNA: B13 RNA with C25U, G26A, C27A
# DNA 1: CAATCTGAATTCCGGTCTCCC
# DNA 2: TGGTGGCTACGACGGGATT
# B24: ACAGAGG (DNA:RNA)
# RNA: B1 RNA with G25A, U29A, C30G, A31G
# DNA 1: CAATCTGAATTCCGGTCTCCC
# DNA 2: TGGTGGCTACGACGGGATT
# B25: GCGAGAU (DNA:RNA)
# RNA: B1 RNA with A27G, G28A, U29G, C30A, A31U
# DNA 1: CAATCTGAATTCCGGTCTCCC
# DNA 2: TGGTGGCTACGACGGGATT
# B26: ACUCCAU (DNA:RNA)
# RNA: B13 RNA with C25A, G26C, C27U, G29C, G30A, G31U
# DNA 1: CAATCTGAATTCCGGTCTCCC
# DNA 2: TGGTGGCTACGACGGGATT
# B27: GAGGCCG (DNA:RNA)
# RNA: B1 RNA with C26A, A27G, U29C, A31G
# DNA 1: CAATCTGAATTCCGGTCTCCC
# DNA 2: TGGTGGCTACGACGGGATT
# B28: UAAUACG (DNA:RNA)
# RNA: B1 RNA with G25U, C26A, G28U, U29A, A31G
# DNA 1: CAATCTGAATTCCGGTCTCCC
# DNA 2: TGGTGGCTACGACGGGATT
# B29: GAUUUGG (DNA:RNA)
# RNA: B13 RNA with C25G, G26A, C27U, C28U, G29U
# DNA 1: CAATCTGAATTCCGGTCTCCC
# DNA 2: TGGTGGCTACGACGGGATT
# B30: CCACCCU (DNA:RNA)
# RNA: B1 RNA with G25C, G28C, U29C, A31U
# DNA 1: CAATCTGAATTCCGGTCTCCC
# DNA 2: TGGTGGCTACGACGGGATT
# B31: CUCGAAC (DNA:RNA)
# RNA: B13 RNA with G26U, C28G, G29A, G30A, G31C
# DNA 1: CAATCTGAATTCCGGTCTCCC
# DNA 2: TGGTGGCTACGACGGGATT
# Target: T1, RBFOX1 RRM
# Assay: EMSA; HiTS-Eq, 1 nM pool, 10 min; buffer printed only for the single-RNA assays: 10 mM Tris pH 7.5, 150 mM NaCl, 3.4 mM EDTA, 0.001% NP-40, 30 C
# Settings: tags: His6 N-terminal (pET28a); label: 5' 32P
# Procedure, shortened: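 These values rest on relative association constants, computed from read-count changes of each RNA species versus the control reaction and normalised to the cognate motif. Reads came from free RNA recovered by 8% native PAGE after purified RbFox RRM (wild type or mutant) at increasing concentrations was equilibrated for 10 min in 50 µL with 1 nM of a 5′-radiolabelled pool with 7 randomized nucleotides and DNA-annealed flanks.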
row,Binder,binding signal
1,B1,0.00545 KA relative to UGCAUGU
2,B2,0.0134 KA relative to UGCAUGU
3,B3,0.0321 KA relative to UGCAUGU
4,B4,0.00856 KA relative to UGCAUGU
5,B5,0.0265 KA relative to UGCAUGU
6,B6,0.0217 KA relative to UGCAUGU
7,B7,0.00727 KA relative to UGCAUGU
8,B8,0.00704 KA relative to UGCAUGU
9,B9,0.00803 KA relative to UGCAUGU
10,B10,0.00656 KA relative to UGCAUGU
11,B11,0.00427 KA relative to UGCAUGU
12,B12,0.00715 KA relative to UGCAUGU
13,B13,0.00987 KA relative to UGCAUGU
14,B14,0.0132 KA relative to UGCAUGU
15,B15,0.0134 KA relative to UGCAUGU
16,B16,0.0301 KA relative to UGCAUGU

row,Binder,binding signal
1,B17,0.0348 KA relative to UGCAUGU
2,B18,0.014 KA relative to UGCAUGU
3,B19,0.0184 KA relative to UGCAUGU
4,B20,0.00682 KA relative to UGCAUGU
5,B21,0.00426 KA relative to UGCAUGU
6,B22,0.0217 KA relative to UGCAUGU
7,B23,0.00415 KA relative to UGCAUGU
8,B24,0.00768 KA relative to UGCAUGU
9,B25,0.0204 KA relative to UGCAUGU
10,B26,0.000544 KA relative to UGCAUGU
11,B27,0.0201 KA relative to UGCAUGU
12,B28,0.00765 KA relative to UGCAUGU
13,B29,0.021 KA relative to UGCAUGU
14,B30,0.00112 KA relative to UGCAUGU
15,B31,0.00512 KA relative to UGCAUGU
